Experimental findings from the supplement of paper PMC12217912 are described below.

This is one part of the list. The full chains were built here from the parent and the listed change. Inactive controls read about 0.05.

The chains are these.
B1: TEV protease; numbered along this chain (parent)
chain: MGESLFKGPRDYNPISSSICHLTNESDGHTTSLYGIGFGPFIITNKHLFRRNNGTLVVQSLHGVFKVKDTTTLQQHLVDGRDMIIIRMPKDFPPFPQKLKFREPQREERICLVTTNFQTKSMSSMVSDTSCTFPSGDGIFWKHWIQTKDGQCGSPLVSTRDGFIVGIHSASNFTNTNNYFTSVPKNFMELLTNQEAQQWVSGWRLNADSVLWGGHKVFMVKPEEPFQPVKEATQL

In this assay the parent is B1. Put plainly: raw area under fraction-flipped curve 0-4 h after induction (AUC4h, not background-subtracted), DNA-recorder readout of cleavage of the substrate (dimensionless); higher = more cleavage of the substrate by the protease variant. As to conditions: temperature: 34 °C; time window: 0-4 h after rhamnose induction. The procedure: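 In vivo DNA recorder in E. coli TOP10(DE3) ΔrhaA at 34 °C. Each TEVp single-site mutant (parent TEVp 0) is paired with a single-site variant of the 7-mer TEVs (canonical ENLYFQ|S). The substrate sits between flexible linkers in a Bxb1-sfGFP-TEVs-SsrA fusion, so cleavage stabilises Bxb1 and speeds flipping of a recombination array, read by NGS. The value is the raw area under the fraction-flipped curve over 0-4 h after rhamnose induction (AUC4h), with ≥20 reads per time point. It is not background-subtracted; inactive controls average about 0.047.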
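Also: Bxb1 expression induced with 0.2% (w/v) L-rhamnose at OD600 near 0.5, cultures sampled hourly, flipped fraction per protease–substrate barcode pair counted by paired-end Illumina sequencing.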

Turning to MGESLFKGPRDYNPISSSICHLTNESDGHTTSLYGIGFGPFIITNKHLFRRNNGTLVVQSLHGVFKVKDTTTLQQHLVDGRDMIIIRMPKDFPPFPQKLKFREPQREERICLVTTNFQTKSMSSMISDTSCTFPSGDGIFWKHWIQTKDGQCGSPLVSTRDGFIVGIHSASNFTNTNNYFTSVPKNFMELLTNQEAQQWVSGWRLNADSVLWGGHKVFMVKPEEPFQPVKEATQL [V126I], the “area with substrate ENLAFQS” value was determined as 0.0606, the “area with substrate ENLCFQS” value was found to be 0.0865, the “area with substrate ENLDFQS” value is 0.0574 and the “area with substrate ENLFFQS” value was 0.0691. Moreover, the “area with substrate ENLGFQS” value stood at 0.0759, the “area with substrate ENLHFQS” value came out at 0.0613, the “area with substrate ENLIFQS” value was 0.0821 and the “area with substrate ENLKFQS” value amounted to 0.0766. For the same variant, the “area with substrate ENLLFQS” value stood at 0.0801, the “area with substrate ENLMFQS” value was determined as 0.0544, the “area with substrate ENLNFQS” value was 0.0569 and the “area with substrate ENLPFQS” value came out at 0.0771. Also, the “area with substrate ENLQFQS” value was 0.0754, the “area with substrate ENLRFQS” value was 0.0876, the “area with substrate ENLSFQS” value worked out at 0.0582 and the “area with substrate ENLTFQS” value came out at 0.0778.

Consider MGESLFKGPRDYNPISSSICHLTNESDGHTTSLYGIGFGPFIITNKHLFRRNNGTLVVQSLHGVFKVKDTTTLQQHLVDGRDMIIIRMPKDFPPFPQKLKFREPQREERICLVTTNFQTKSMSSMVSDTSCCFPSGDGIFWKHWIQTKDGQCGSPLVSTRDGFIVGIHSASNFTNTNNYFTSVPKNFMELLTNQEAQQWVSGWRLNADSVLWGGHKVFMVKPEEPFQPVKEATQL [T132C], for which the “area with substrate ENLAFQS” value was found to be 0.0691, the “area with substrate ENLCFQS” value came out at 0.0766, the “area with substrate ENLDFQS” value is 0.0887 and the “area with substrate ENLEFQS” value is 0.094. Further, the “area with substrate ENLFFQS” value worked out at 0.0828, the “area with substrate ENLGFQS” value was 0.0544, the “area with substrate ENLHFQS” value amounted to 0.0934 and the “area with substrate ENLIFQS” value worked out at 0.0717. The “area with substrate ENLKFQS” value came out at 0.0728, the “area with substrate ENLLFQS” value was 0.0581, the “area with substrate ENLMFQS” value was found to be 0.063 and the “area with substrate ENLNFQS” value turned out to be 0.0781. Besides, the “area with substrate ENLQFQS” value stood at 0.0637, the “area with substrate ENLRFQS” value was determined as 0.0817, the “area with substrate ENLVFQS” value was determined as 0.0729 and the “area with substrate ENLWFQS” value stood at 0.0749.

Regarding MGESLFKGPRDYNPISSSICHLTNESDGHTTSLYGIGFGPFIITNKHLFRRNNGTLVVQSLHGVFKVKDTTTLQQHLVDGRDMIIIRMPKDFPPFPQKLKFREPQREERICLVTTNFYTKSMSSMVSDTSCTFPSGDGIFWKHWIQTKDGQCGSPLVSTRDGFIVGIHSASNFTNTNNYFTSVPKNFMELLTNQEAQQWVSGWRLNADSVLWGGHKVFMVKPEEPFQPVKEATQL [Q118Y], the “area with substrate ENLAFQS” value came out at 0.0524, the “area with substrate ENLDFQS” value amounted to 0.0522, the “area with substrate ENLKFQS” value is 0.084 and the “area with substrate ENLNFQS” value came to 0.0646. Further, the “area with substrate ENLRFQS” value turned out to be 0.0727 and the “area with substrate ENLTFQS” value came out at 0.0615.

For MGESLFKGPRDYNPISSSICHLTNESDGHTTSLYGIGFGPFIITNKHLFRRNNGTLVVQSLHGVFKVKDTTTLQQHLVDGRDMIIIRMPKDFPPFPQKLKFREPQREERICLVTTNFQTKSVSSMVSDTSCTFPSGDGIFWKHWIQTKDGQCGSPLVSTRDGFIVGIHSASNFTNTNNYFTSVPKNFMELLTNQEAQQWVSGWRLNADSVLWGGHKVFMVKPEEPFQPVKEATQL [M122V], the “area with substrate ENLAFQS” value worked out at 0.054, the “area with substrate ENLDFQS” value is 0.0592, the “area with substrate ENLEFQS” value turned out to be 0.0735 and the “area with substrate ENLFFQS” value was 0.0914. The “area with substrate ENLGFQS” value came out at 0.0716, the “area with substrate ENLHFQS” value turned out to be 0.0733, the “area with substrate ENLIFQS” value worked out at 0.0835 and the “area with substrate ENLKFQS” value stood at 0.0817. The “area with substrate ENLMFQS” value amounted to 0.0619, the “area with substrate ENLNFQS” value is 0.0676, the “area with substrate ENLPFQS” value amounted to 0.05 and the “area with substrate ENLQFQS” value was found to be 0.0598. The “area with substrate ENLVFQS” value turned out to be 0.0808.

With MGESLFKGPRDYNPISSSICHLTNESDGHTTSLYGIGFGPFIITNKHLFRRNNGTLVVQSLHGVFKVKDTTTLQQHLVDGRDMIIIRMPKDFPPFPQKLKFREPQREERICLVTTNFQTKIMSSMVSDTSCTFPSGDGIFWKHWIQTKDGQCGSPLVSTRDGFIVGIHSASNFTNTNNYFTSVPKNFMELLTNQEAQQWVSGWRLNADSVLWGGHKVFMVKPEEPFQPVKEATQL [S121I], the “area with substrate ENLAFQS” value was found to be 0.0636, the “area with substrate ENLDFQS” value worked out at 0.0616, the “area with substrate ENLFFQS” value was 0.112 and the “area with substrate ENLHFQS” value was 0.0466. Moreover, the “area with substrate ENLIFQS” value was 0.0892, the “area with substrate ENLKFQS” value came to 0.0697, the “area with substrate ENLLFQS” value was 0.0639 and the “area with substrate ENLMFQS” value was 0.0614. The “area with substrate ENLNFQS” value was 0.0731, the “area with substrate ENLPFQS” value was determined as 0.0633, the “area with substrate ENLQFQS” value worked out at 0.0593 and the “area with substrate ENLRFQS” value was found to be 0.0607. Also, the “area with substrate ENLSFQS” value was 0.0623.

For MGESLFKGPRDYNPISSSICHLTNESDGHTTSLYGIGFGPFIITNKHLFRRNNGTLVVQSLHGVFKVKDTTTLQQHLVDGRDMIIIRMPKDFPPFPQKLKFREPQREERICLVTTNFQTKKMSSMVSDTSCTFPSGDGIFWKHWIQTKDGQCGSPLVSTRDGFIVGIHSASNFTNTNNYFTSVPKNFMELLTNQEAQQWVSGWRLNADSVLWGGHKVFMVKPEEPFQPVKEATQL [S121K], the “area with substrate ENLAFQS” value came out at 0.0806, the “area with substrate ENLCFQS” value amounted to 0.0793, the “area with substrate ENLDFQS” value came out at 0.0519 and the “area with substrate ENLEFQS” value was 0.0679. Besides, the “area with substrate ENLFFQS” value was found to be 0.032, the “area with substrate ENLGFQS” value stood at 0.0649, the “area with substrate ENLHFQS” value was 0.0716 and the “area with substrate ENLIFQS” value was 0.117. For the same variant, the “area with substrate ENLMFQS” value was 0.0729, the “area with substrate ENLPFQS” value came to 0.0307, the “area with substrate ENLQFQS” value was determined as 0.0882 and the “area with substrate ENLSFQS” value was determined as 0.0723. The “area with substrate ENLWFQS” value is 0.0646.

As to MGESLFKGPRDYNPISSSICHLTNESDGHTTSLYGIGFGPFIITNKHLFRRNNGTLVVQSLHGVFKVKDTTTLQQHLVDGRDMIIIRMPKDFPPFPQKLKFREPQREERICLVTTNFQTKSMSSMVSDTSCTFPNGDGIFWKHWIQTKDGQCGSPLVSTRDGFIVGIHSASNFTNTNNYFTSVPKNFMELLTNQEAQQWVSGWRLNADSVLWGGHKVFMVKPEEPFQPVKEATQL [S135N], the “area with substrate ENLAFQS” value worked out at 0.0604, the “area with substrate ENLCFQS” value turned out to be 0.0578, the “area with substrate ENLDFQS” value turned out to be 0.0673 and the “area with substrate ENLEFQS” value is 0.0619. Further, the “area with substrate ENLFFQS” value was 0.0689, the “area with substrate ENLKFQS” value came to 0.0519, the “area with substrate ENLLFQS” value stood at 0.0599 and the “area with substrate ENLNFQS” value was found to be 0.0541. In addition, the “area with substrate ENLPFQS” value was found to be 0.0448, the “area with substrate ENLQFQS” value was determined as 0.073, the “area with substrate ENLSFQS” value was 0.0494 and the “area with substrate ENLWFQS” value was determined as 0.078.

On to MGESLFKGPRDYNPISSSICHLTNESDGHTTSLYGIGFGPFIITNKHLFRRNNGTLVVQSLHGVFKVKDTTTLQQHLVDGRDMIIIRMPKDFPPFPQKLKFREPQREERICLVTTNFQTKSMSSMVSDTSCTFPFGDGIFWKHWIQTKDGQCGSPLVSTRDGFIVGIHSASNFTNTNNYFTSVPKNFMELLTNQEAQQWVSGWRLNADSVLWGGHKVFMVKPEEPFQPVKEATQL [S135F], for which the “area with substrate ENLAFQS” value came to 0.0647, the “area with substrate ENLCFQS” value turned out to be 0.0686, the “area with substrate ENLDFQS” value came out at 0.0699 and the “area with substrate ENLFFQS” value came to 0.0647. The “area with substrate ENLHFQS” value amounted to 0.0636, the “area with substrate ENLIFQS” value worked out at 0.0627, the “area with substrate ENLKFQS” value is 0.0618 and the “area with substrate ENLLFQS” value worked out at 0.0594. For the same variant, the “area with substrate ENLMFQS” value worked out at 0.0604, the “area with substrate ENLNFQS” value came to 0.065, the “area with substrate ENLPFQS” value came out at 0.0527 and the “area with substrate ENLQFQS” value stood at 0.0794. Further, the “area with substrate ENLRFQS” value turned out to be 0.0492, the “area with substrate ENLSFQS” value was 0.0532 and the “area with substrate ENLVFQS” value worked out at 0.0636.

On to MGESLFKGPRDYNPISSSICHLTNESDGHTTSLYGIGFGPFIITNKHLFRRNNGTLVVQSLHGVFKVKDTTTLQQHLVDGRDMIIIRMPKDFPPFPQKLKFREPQREERICLVTTNFQTKSMSSMVSDTSCTFPKGDGIFWKHWIQTKDGQCGSPLVSTRDGFIVGIHSASNFTNTNNYFTSVPKNFMELLTNQEAQQWVSGWRLNADSVLWGGHKVFMVKPEEPFQPVKEATQL [S135K], for which the “area with substrate ENLAFQS” value turned out to be 0.0724, the “area with substrate ENLCFQS” value was 0.0648, the “area with substrate ENLDFQS” value was found to be 0.0647 and the “area with substrate ENLEFQS” value came out at 0.0639. In addition, the “area with substrate ENLFFQS” value worked out at 0.0653, the “area with substrate ENLGFQS” value stood at 0.0739, the “area with substrate ENLIFQS” value amounted to 0.0695 and the “area with substrate ENLLFQS” value stood at 0.0723. Further, the “area with substrate ENLMFQS” value was determined as 0.0693, the “area with substrate ENLNFQS” value turned out to be 0.063, the “area with substrate ENLPFQS” value was 0.0662 and the “area with substrate ENLQFQS” value was 0.0562. For the same variant, the “area with substrate ENLRFQS” value is 0.0588, the “area with substrate ENLTFQS” value came to 0.0597 and the “area with substrate ENLWFQS” value stood at 0.037.
